Source: paper PMC6162201, “Towards a comprehensive understanding of the structural dynamics of a bacterial diterpene synthase during catalysis” (Nature Communications, 2018)

How the values were obtained:
[1] = target: T1, CotB2 (CotB2^wt) (Streptomyces melanosporofaciens, UniProt C9K1X5); assay: X-ray crystal structure, […] A, co-crystallisation with FGGDP; assay type: binding; details: Mg2+ (three ions), pH 7.5; active site, closed state; formed in crystallo from FGGDP
T1 construct: C-terminal His6 tag, pET-24a, expressed in E. coli Rosetta2 (DE3)
T1 sequence (C9K1X5 1-307): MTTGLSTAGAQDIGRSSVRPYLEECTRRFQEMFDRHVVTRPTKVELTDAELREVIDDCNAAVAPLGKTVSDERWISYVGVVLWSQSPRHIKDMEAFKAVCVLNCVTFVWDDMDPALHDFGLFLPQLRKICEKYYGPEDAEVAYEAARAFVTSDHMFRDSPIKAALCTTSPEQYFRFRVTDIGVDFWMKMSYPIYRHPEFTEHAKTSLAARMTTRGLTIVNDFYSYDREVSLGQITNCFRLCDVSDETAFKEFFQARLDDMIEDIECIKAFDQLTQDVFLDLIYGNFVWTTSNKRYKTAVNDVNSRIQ

[2] = target: T1, CotB2 (CotB2^wt); assay: co-crystallisation; turnover in crystallo; assay type: binding; details: Mg2+, pH 7.5; cyclised in crystallo, seen only as F-Dola plus diphosphate
Excerpt: Instead, we detected clearly resolved electron density

[3] = target: T1, CotB2 (CotB2^wt); assay: GC/MS product formation; assay type: cell-based; details: turnover to cyclooctat-9-en-7-ol; assay format not told in main text

In the case of `C=C(C)[C@@H]1CC[C@]2(C)C/C(F)=C(\C)CC/C=C(/C)CC[C@H]12` [F-Dola, 2-fluoro-3,7,18-dolabellatriene], the “X-ray crystal structure, 1.8 A, co-crystallisation with FGGDP” value [1] is reported as “ring-like structure positioned in the active site that we interpret as the reaction intermediate”.
For `CC(C)=CCC/C(C)=C/CC/C(C)=C/CC/C(C)=C(\F)COP(=O)(O)OP(=O)(O)O` [FGGDP], the “co-crystallisation; turnover in crystallo” value [2] was “we did not observe the entire FGGDP molecule. Instead, we detected clearly resolved electron density”.
`CC(C)=CCC/C(C)=C/CC/C(C)=C/CC/C(C)=C/COP(=O)(O)OP(=O)(O)O` [GGDP, geranylgeranyl diphosphate] was tested, and the GC/MS product formation [3] was “GC/MS spectrum to monitor product formation by CotB2^wt (black) and CotB2^ΔC (red)”.
